Source: PubChem BioAssay (NCI)
Values joined by “and” are separate entries in the source; they are usually repeats but may differ in a detail not shown here. Equal entries are not always repeated.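 Tested at 5 concentrations; 48 h exposure; 96-well plates; endpoints linearly interpolated, else capped at highest concentration. GI50 = concentration required for 50% inhibition of growth. TGI: total growth inhibition.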 Square brackets hold non-standard residues; d marks the D form. Peptide text beside a SMILES is read from it. Ava = NCCCCC(=O)O; Mpa = O=C(O)CCS

System: NCI-H322M lung
Assay: DTP human tumour cell line panel, 48 h

With `CC(NC(=O)CCS)C(=O)NC(C)C(=O)NC(Cc1c[nH]c2ccccc12)C(=O)NC(Cc1c[nH]cn1)C(=O)NC(CO)C(=O)NC(Cc1c[nH]c2ccccc12)C(=O)NCCCCC(=O)NC(C)C(=O)NC(CCC(N)=O)C(=O)NC(CCCCN)C(=O)NC(C)C(=O)NC(CCCNC(=N)N)C(=O)NC(CCCCN)C(N)=O` (centres undefined) ([Mpa]AAWHSW[Ava]AQKARK-NH2; configuration not given here) as the compound, how does the TGI read?
The TGI was over 100 µM.

Which TGI does the source give for `O=C1OC(C(O)CO)C(C(O)CO)OC1=O` (centres undefined) here?
The TGI was over 10 µM.

With `CCCC(=O)OCC1OC(n2cc(F)c(=O)[nH]c2=O)CC1OC(=O)CCC` (centres undefined) as the compound, how does the TGI read?
The TGI was over 10 µM.

For `OCc1c(-c2cccs2)oc(-c2cccs2)c1CO`, which GI50 is on record?
Its GI50 is 29.8 µM.

What about the TGI of the same compound?
Its TGI is over 100 µM.

With `C=CCCC(O)c1cc(C)c(O)c(C)c1` (centres undefined) as the compound, how does the TGI read?
The TGI was over 100 µM.

`CC(=O)OCC1OC(n2c(C)c(C)cc(C#N)c2=S)C(OC(C)=O)C(OC(C)=O)C1OC(C)=O` (centres undefined) was tested. Which TGI did it give?
The TGI was over 100 µM.

`O=C1c2ccccc2C(=O)N1c1ccc(Cc2ccc(N3C(=O)c4ccccc4C3=O)cc2)cc1` was tested. Which TGI did it give?
Its TGI is over 100 µM.

With `COc1c(C(=O)/C(=N/Nc2ccc(C(=O)O)cc2)C(C)=O)c(O)cc2occc12` as the compound, how does the TGI read?
The TGI was over 100 µM.

Which TGI does the source give for `COCN1COCN(C)C1=O` here?
The TGI was over 100 µM.

With `O=C(O)CCC(O)=C1S(=O)(=O)OCCOS1(=O)=O` as the compound, how does the TGI read?
Its TGI is over 100 µM.

For `Cc1cc(NC(=O)NCCOc2ccc(N3C(N)=NC(N)=NC3(C)C)cc2Cl)ccc1S(=O)(=O)F`, which GI50 is on record?
Its GI50 is 2.44 µM.

And the TGI?
The TGI was over 100 µM.

For `NC(CSC(c1ccccc1)(c1ccccc1)c1ccccc1)C(=O)O` (centres undefined), which GI50 is on record?
Its GI50 is 1.39 µM and 0.674 µM.

And the TGI?
The TGI was 110 µM and > 100 µM.

For `CC1=C[P+](c2ccccc2)(c2ccccc2)c2ccccc2O1`, which TGI is on record?
Its TGI is 65 µM.

Which TGI does the source give for `COc1ccc(N2C(=O)C3ON(Cc4ccc(CC(N)=O)cc4)C(c4c5ccccc5c(C)c5ccccc45)C3C2=O)cc1` (centres undefined) here?
Its TGI is over 100 µM.

For `Cc1cccc2c(=O)c3cccc([C@H](C)C(=O)O)c3oc12`, which TGI is on record?
The TGI was over 100 µM.

With `CCCCn1c(=O)[nH]c2c(N)ncnc21` as the compound, how does the TGI read?
Its TGI is over 100 µM.

What does the source list for `O=[N+]([O-])c1ccc(Sc2cccc[n+]2[O-])c2nonc12`?
GI50: 15.5 µM; TGI: 94.4 µM

`COc1ccccc1/C=C1\C(=O)N(C(=O)Cc2ccccc2)N=C1C` was tested. Which TGI did it give?
Its TGI is over 100 µM.

For `CCC(C)C(Nc1c2ccccc2nc2c(C(=O)NCCN(C)C)cccc12)C(=O)O` (centres undefined), which TGI is on record?
The TGI was 61.8 µM.

`CC(=O)c1cc2c(Br)cccc2oc1=O` was tested. Which TGI did it give?
Its TGI is over 100 µM.

`Cc1cc(NS(=O)(=O)c2ccc(NC(=O)c3ccc(Cl)c4c(Nc5ccc(S(=O)(=O)Nc6cc(C)on6)cc5)c5ccccc5nc34)cc2)no1` was tested. Which TGI did it give?
The TGI was 33.6 µM.

How did the TGI turn out when `N=c1oc2ccc3ccccc3c2cc1-c1nc2ccccc2c(=O)[nH]1` was run?
Its TGI is over 100 µM.

Which results are given for `CCCC(=O)Oc1ccc(/C(=C(\C)c2ccc(Cl)cc2)c2ccc(OCCN(CC)CC)cc2)cc1`?
GI50: 3.17 µM; TGI: 12.3 µM

For `CN[C@@H](C)C(=O)N[C@H](C(=O)N1CCC[C@H]1c1nc(C(=O)c2ccc(F)cc2)cs1)C1CCCCC1`, which GI50 is on record?
The GI50 was 42.7 µM.

And the TGI?
The TGI was over 100 µM.

How did the TGI turn out when `COc1cc2c(cc1OC)C(CCN)=NCC2` was run?
Its TGI is over 100 µM.

How did the TGI turn out when `O=S1(=O)OCCOS(=O)(=O)C1(F)Cc1ccccc1` was run?
Its TGI is over 100 µM.

With `Cc1cc2ncn(CC(=O)O)c2cc1C` as the compound, how does the TGI read?
The TGI was over 100 µM.

For `CCOC(=O)NC(Nc1ccc(F)cc1F)(C(F)(F)F)C(F)(F)F`, which TGI is on record?
Its TGI is over 100 µM.

With `CC(=O)C1=C(C)N(c2ccccc2)C2(O)C3=C(C(=O)c4ccccc4C3=O)C(O)=CC12Cl` (centres undefined) as the compound, how does the TGI read?
Its TGI is 25 µM.

Which GI50 does the source give for `N.N.N.N.N#N.N#N.[Cl-].[Os+6]` here?
The GI50 was over 100 µM.

What about the TGI of the same compound?
The TGI was over 100 µM.

How did the TGI turn out when `O=C(n1c2ccccc2c2n[nH]c(=S)nc21)C(F)(F)F` was run?
Its TGI is over 100 µM.

Which TGI does the source give for `O=C(NCCCN1CCN(CCCNC(=O)c2cccc3ccccc23)CC1)c1cccc2ccccc12` here?
Its TGI is over 100 µM.

With `CC1=C(C)C(=O)OC(C(C)(O)C2(O)CC3OC34C3CC(O)C56OC5C=CC(=O)C6(C)C3CCC42C)C1` (centres undefined) as the compound, how does the TGI read?
Its TGI is 21.2 µM.

Which GI50 does the source give for `O=C(O)CCCN1C(=O)/C(=C/C(Cl)=C/c2ccccc2)SC1=S` here?
The GI50 was 2.78 µM.

And the TGI?
Its TGI is 10.2 µM.

How did the GI50 turn out when `COc1ccc(-c2cn(C)c3c2-n2cccc2C3=O)cc1O` was run?
The GI50 was 4.03 µM.

And the TGI?
Its TGI is 20.3 µM.

Which GI50 does the source give for `COc1cc(/C=C/C(=O)c2c(C)n([O-])c3ccccc3[n+]2=O)cc(OC)c1OC` here?
Its GI50 is 11.6 µM.

What about the TGI of the same compound?
The TGI was 25.5 µM.

`C[C@H]1C[C@@H](n2c(Nc3ccc(OC(F)(F)F)cc3)nc3cc(CCC(=O)O)ccc32)CC(C)(C)C1` was tested. Which GI50 did it give?
The GI50 was 11.6 µM.

And the TGI?
Its TGI is 23.8 µM.

Which GI50 does the source give for `CNC(=O)[C@H](Cc1c[nH]c2ccccc12)NC(=O)[C@@H](CC(=O)NO)CC(C)C` here?
The GI50 was over 25 µM.

What about the TGI of the same compound?
Its TGI is over 25 µM.

With `CC(NCCN(C)C)C1CCC2C3CCc4cc(O)ccc4C3CCC12C` (centres undefined) as the compound, how does the TGI read?
The TGI was 13.9 µM.

How did the TGI turn out when `O=C1CCCC2=C1CC1=C(CCCC1=O)N2c1ccc(Cl)cc1` was run?
Its TGI is over 100 µM.

For `CC(O)C(CO)NC(=O)C1CSSCC(NC(=O)C(N)Cc2ccccc2)C(=O)NC(Cc2ccccc2)C(=O)NC(Cc2c[nH]c3ccccc23)C(=O)NC(CCCCN)C(=O)NC(C(C)O)C(=O)N1` (centres undefined), which TGI is on record?
Its TGI is over 100 µM.

Which results are given for `COc1ccc(CCN2CCCn3c2nc2ccccc2c3=O)cc1`?
GI50: 0.274 µM; TGI: > 100 µM

`O=C(COc1cc(=O)oc2ccccc12)c1ccccc1` was tested. Which TGI did it give?
Its TGI is over 100 µM.

Which TGI does the source give for `Cn1cc(-c2ccc3c4ccccc4n(C)c3c2)c2ccccc21` here?
Its TGI is over 100 µM.

What does the source list for `Cc1cccc(CNc2c3ccccc3nc3ccccc23)c1`?
GI50: 2.1 µM; TGI: 6.11 µM

`COC(=O)NC1(NC(=O)OC)NC(=O)c2ccccc2N1` was tested. Which TGI did it give?
The TGI was over 100 µM.

With `CS(=O)(=O)OCCN(CCOS(C)(=O)=O)c1ccc(C=Nc2ccc(-c3csc(Cc4ccccc4)n3)cc2)c(Cl)c1` as the compound, how does the TGI read?
The TGI was over 100 µM.

How did the TGI turn out when `Cc1cc(=O)[nH]c2cc(NC(=O)C(C)NC(=O)C(C)NC(=O)C(C)NC(=O)OC(C)(C)C)ccc12` (centres undefined) was run?
The TGI was over 15 µM.

With `CN1C/C(=C\c2cccs2)C2=NN(c3ccccc3)C(c3cccs3)C2C1` (centres undefined) as the compound, how does the TGI read?
The TGI was over 100 µM.

What does the source list for `CN1CCN(C2=C(Cl)C(=O)c3ccccc3C2=O)CC1`?
GI50: 3.04 µM; TGI: 8.64 µM

Which TGI does the source give for `Cc1c(C)c2cc3c(=O)c(CCl)coc3c(C)c2oc1=O` here?
Its TGI is over 100 µM.

How did the TGI turn out when `Cc1ccc(C(=O)Nc2ccc(S(=O)(=O)O)c3cc(S(=O)(=O)O)cc(S(=O)(=O)O)c23)cc1NC(=O)c1cccc(NC(=O)Nc2cccc(C(=O)Nc3cc(C(=O)Nc4ccc(S(=O)(=O)O)c5cc(S(=O)(=O)O)cc(S(=O)(=O)O)c45)ccc3C)c2)c1` was run?
The TGI was over 100 µM.

With `CN(c1cccc(C(=O)O)c1)c1cc(O/N=[N+](\[O-])N(C)C)c([N+](=O)[O-])cc1[N+](=O)[O-]` as the compound, how does the GI50 read?
Its GI50 is over 100 µM.

What about the TGI of the same compound?
Its TGI is over 100 µM.

How did the GI50 turn out when `O=C1/C(=C/c2ccc(F)cc2)COc2ccc(O)c(O)c21` was run?
The GI50 was 4.22 µM.

And the TGI?
Its TGI is over 100 µM.

With `O=C(Nc1ccccc1C(=O)NCc1ccccc1)/C(=C/c1ccccc1O)NC(=O)c1ccccc1` as the compound, how does the TGI read?
The TGI was over 100 µM.

Which TGI does the source give for `CCO/N=C\c1ccc2oc(-c3ccccc3)cc(=O)c2c1` here?
The TGI was 47 µM.

How did the TGI turn out when `COc1ccc2c(=O)c(-c3cc(OC)c(OC)cc3OC)coc2c1` was run?
Its TGI is over 100 µM.

For `O=C(CSSCC(=O)c1ccc(Cl)cc1)c1ccc(Cl)cc1`, which GI50 is on record?
The GI50 was 10.2 µM.

What about the TGI of the same compound?
The TGI was 51.3 µM.

Which results are given for `COc1ccc(-n2nc(C)c3c(Nc4ccc(NC(=O)Nc5cccc(C(F)(F)F)c5)cc4)ncnc32)cc1`?
GI50: 1.7 µM; TGI: 3.96 µM

How did the TGI turn out when `Cc1ccc([N+](=O)[O-])cc1S(=O)(=O)Nc1ccc(C2=NN(S(=O)(=O)c3cc([N+](=O)[O-])ccc3C)C(c3cccs3)C2)cc1` (centres undefined) was run?
Its TGI is over 100 µM.

For `O=C(CCCc1cccc2[nH]c3c(c12)CN(Cc1ccccc1)CC3)c1ccc(F)cc1`, which TGI is on record?
Its TGI is over 100 µM.

With `O=C(CCN1CCCC1)Nc1ccc2c(Nc3ccc(F)cc3)c3ccccc3nc2c1` as the compound, how does the GI50 read?
The GI50 was 1.41 µM.

And the TGI?
Its TGI is 3.59 µM.

`CC(C#N)(NO)C(C)(C#N)NO` (centres undefined) was tested. Which TGI did it give?
Its TGI is over 100 µM.

Which TGI does the source give for `COc1ccc2c(c1)/C(=C\c1c(Cl)nc3n1CCS3)C(=O)N2` here?
The TGI was over 100 µM.

How did the TGI turn out when `Cc1[nH]n(-c2nc(-c3ccccc3)cc(=O)[nH]2)c(=O)c1CCO` was run?
Its TGI is over 100 µM.

Which TGI does the source give for `Cc1cn(S(=O)(=O)c2ccccc2)c2c(OCc3ccccc3)cc([N+](=O)[O-])cc12` here?
Its TGI is over 100 µM.

For `CC(C)(C)c1cc(C2c3cc4c(cc3OC(O)(CO)C2C(=O)O)OCO4)cc(C(C)(C)C)c1O` (centres undefined) (tested in a mixture with another compound), which TGI is on record?
The TGI was 27.8 µM.

Which TGI does the source give for `CC(C)(C)C1=CC(=N/N=c2\scc(-c3ccccc3)n2Cc2ccccc2)C=C(C(C)(C)C)C1=O` here?
The TGI was over 100 µM.

`CCC1(CC)C(=O)NC(=O)NC1=S` was tested. Which TGI did it give?
Its TGI is over 100 µM.

With `CCN1C(=O)N(CC)C2C1NN=c1s/c(=C3\C(=O)Nc4ccccc43)c(=O)n12` (centres undefined) as the compound, how does the GI50 read?
Its GI50 is 0.764 µM.

And the TGI?
Its TGI is over 100 µM.

How did the TGI turn out when `O=C(NC(=S)Nc1ccc(Br)cc1)c1ccc2c(c1)Sc1ccccc1O2` was run?
Its TGI is over 100 µM.

`O=c1[nH]c2nc3ccccc3c(=O)n2nc1Cc1ccccc1` was tested. Which TGI did it give?
The TGI was over 100 µM.

Which TGI does the source give for `COc1ccc2[nH]c3c(C)c4c(c(C)c3c2c1)CN(C)C=C4` here?
Its TGI is 19.8 µM.
